# In the RNAGym collection of RNA variant scans (doi:10.7554/elife.90254):
# The source gives no read counts; variants with many changes may rest on few reads.
# B1: LINE1-mini (parent)
# chain: GGCAGAGCUCAACACAGCGUGGCAAAGUGGCUGUGGCUAGACUGCC
# Variants of: B1
# Test: self-cleavage, relative activity (ratio to wild type); higher = more cleavage; in vitro, sequencing; the parent is a self-cleaving ribozyme
row,Variant,self-cleavage
1,GGAAGAGCACAACACAGCGUGGCAAAGUUGCUGUGGCUAGACUGCC,0.28
2,GGAAGAGCUCUACACAGCGUGGGAAAGUGGCUGUGGCUAGACUGCC,0.06
3,UGCAUAGCUCAACACAGCGUGGCAAAGUUGCUGUGGCUAUACUGCC,0.02
4,GGUAGAGCUCUACACAUCGUGGCAAAGUGGCUGUGGCUAGACAGCC,0.03
5,GGCAGAGCUAAACACAGCGUGACAAAGUGGCUGAGGCUAGACUGCA,0.03
6,GGCAGACAUCAACACAUCGUGGCAAAGUGGCUGUGGCUAGACCGCC,0.14
7,CGCAGAGCUCAACACAGCGUAGUAGACUGGCUGUGGCUAUACUGCC,0.04
8,GGCAGAGCUCAACACAGCGUGGCAAAGUGUGUGUGGGUAGACUGCC,0.04
9,CGGAGAGCUCAACACAGCGUGGCAUAGUGGCUGUGGCUAGACUGCC,0.19
10,GUCAGAGCGCCACACAGCGUGGCAAAGUGGCUGUGGCUAGAAUGCC,0
11,GGCAGGUAUCAACACAGCGAGGCAUAGUGGCUUUGGCUAGACUGCC,0.22
12,GGCGGAGCUCAAUACAGCGUGGCAUAGUGGCUGUGGGUAAACUGCC,0.06
13,GGUAGAGCUCAACACAGCGUGGCAAAGUCGAUGUGGCUAGACUGCU,0.05
14,GGCAGAGUUCAACACACCGUGACAAAGUGGCUGUGGCUAGACUGCC,0.42
15,GGCAGAGCUCAACACAGGUUGGCAAAGUGGCUGUGGCUCGACUGCC,0.27
16,CGCAGAGCUCAACACAGCGCGGCAAAAUGUCUGAGGCUAGACUGCC,0.04
17,GGCAGAGCUCAACACGGCGUGGCAAAGUGGAUGUUGCUAGACUGCC,0.12
18,GGCAGAUCUAAACACAGCGUGGCAAAGUGGCUGUGGCUAGAUUGCC,0.03
19,GGCAGAGCUCAGCACAGCGUGGCAAAGUGUCUGAGGCUAGACUGCC,0.04

row,Variant,self-cleavage
1,GACCGAGAUCAACACAGCGUGGCAAAGUGGCUGUGGCUAGACUGCC,0.66
2,GGGAGAGCUCAAUUCAGCGUGGCAAAGUGGCUGUGGCUAGAAUGCU,0.31
3,AGCACAGCGCAACACAGCGUGGAAAAGUGGCUGUGUCUAGACUGCC,0.04
4,GGCAGAGAUAAACACAGCGUGGUAAAGUGGCUGUGGCUAGACUGCU,0
5,GGCACAGCUCAGCACACCGUGAGAAAGUGGCUGUGGCUAGACUGCC,0.01
6,GGUAGAGCGCAACACAGCGUGGCAAAGGGGCUUUGGCUAGACUGCC,0.07
7,GACAGAUCUCAACUAAGCGUGGCAAAGUGGCUGUGGCUAGAUUGCC,0.49
8,GGCAUUGCUCAACACACCGUAGCAAAGUGGCUGUGGCUAGAUUGGC,0.02
9,GGCAGAGCUCAACACCGCGUGGCAAAGUGGCUGUGGCUCUAGUGCC,0.06
10,GGUAGAGCUCAACACAGAGUGGCAAAGUGGCUGUGGCUAGAUUGCA,0.1
11,UGCAGAGCUCAACGCAGCGUGGCAAUGUGGCUGUGGCUAGACUGCC,0.27
12,GGCAGAGCUCCACAAAGCGUGGCAAAGUGGCUGUGGCUCGACUGAC,0
13,UGCAGAGCUCAACACAUCGUGGGGAAGUGGCUCUGGUUAGCCUGCC,0.02
14,GGCAGAGCUCAACACAGCGUGGCUAAGUGGCUGUGUUUAGACUGCC,0.06
15,GGCAGAGCUCAACACGGCGUGACAAUGUGGCUGUGGCUAGACUGCC,0.49
16,GGCAGAGGUCAACACAGCCUGGCAAAGUAGUUGUUGCUAGACUGCC,0.06
17,GGUAGAGCACAACACAGCGUGGUAACGUGGCUGUGGCUAGACUGCC,0.21
18,GGUAGAGCUCAACACAGCGUGACACAGGGGCUGUGGCUAGACUGCC,0.34
19,GUCAGAGCUCAACACAGCGUCGCACAGUAAUUGUGGAUAGACUGCC,0.02

row,Variant,self-cleavage
1,GGCAGAGAUCAACACAGCGUGACGUAUUGGCUGUGGCUAGACUGCC,0.13
2,GGCAGCGCUCAACACAGCGUGGCAAAGUUGCUGUGGCUAGACAGCC,0.06
3,GGUAGAGCACAACACAGCGUGGAAAAGUGGCCGUGGCUAGACUGCC,0.09
4,GGCAGAGCUCCACACAGUGCGGCACAGUAGCUGUGGCGAGACUGCC,0
5,GGCAGAGGUCAACACAGAGUGCCAAAGUGGCUGUGGCUAGACUGCC,0.04
6,GGCCGAGCUCAACACAGCGUGGCGAAGUGGUUGUGGGUAGACUGCC,0.02
7,GGCAGAUCUCAACACAGCGGGGCAAAGUGACUGUGGCAAGACUGCC,0.01
8,GGCAGUGCUCAACACAGCGUGGCAAAGUGGCUGUGGAUAGACUGAC,0.01
9,GUAAGAGCUCAACACAGCGUGGCAAAGUCGCUGUGGCUGGACUGCC,0.07
10,GGAAGAGCUCAACAGAGCGAGGCAAAGUGGCUGUGGCUAGACUGCC,0.05
11,GGCAGAUCUCAACACAGCGUGGCAAACUGGCUGUGGCUAGCCUGCC,0.06
12,GGCAGGGCUCAACUCAGCGUGGUAAAGUUGGUGUGGCUAGACUGCC,0.02
13,GGCUGAGCUCAACACAGCGUGGCAAAGGGGCUGUGGCUAGACUGUC,0.27
14,GGCAGAGCUCAACACAGCGUGGCUAAGUAGGUGUGGCUAGACUGCC,0.07
15,GCCAGAGCUCAACACAGCGUGGCAAAUUGGCUGAACCUAGACUGCC,0.01
16,GGCAGAUCUCAACACAGUGUGGCAAAGUGGCUGUGGCUACACUGGC,0.01
17,GGACAAGCUCAACACAGCGUGGCAAAGUGGCUGUAGCUAGACUGCC,0.12
18,GGCAGAGUUCAACACAUCGAGGCAGAGUGGUUGUGGCUAACCUGCC,0.07
